Consider 15 substances from publication PMC8249609.

By UniProt entry, the sequences of proteins in these tests, tags left out. Where a name states a change or a piece, a line headed by the entry shows the natural chain unless it says otherwise. Residues count along the entry.
UniProt Q9R0G6: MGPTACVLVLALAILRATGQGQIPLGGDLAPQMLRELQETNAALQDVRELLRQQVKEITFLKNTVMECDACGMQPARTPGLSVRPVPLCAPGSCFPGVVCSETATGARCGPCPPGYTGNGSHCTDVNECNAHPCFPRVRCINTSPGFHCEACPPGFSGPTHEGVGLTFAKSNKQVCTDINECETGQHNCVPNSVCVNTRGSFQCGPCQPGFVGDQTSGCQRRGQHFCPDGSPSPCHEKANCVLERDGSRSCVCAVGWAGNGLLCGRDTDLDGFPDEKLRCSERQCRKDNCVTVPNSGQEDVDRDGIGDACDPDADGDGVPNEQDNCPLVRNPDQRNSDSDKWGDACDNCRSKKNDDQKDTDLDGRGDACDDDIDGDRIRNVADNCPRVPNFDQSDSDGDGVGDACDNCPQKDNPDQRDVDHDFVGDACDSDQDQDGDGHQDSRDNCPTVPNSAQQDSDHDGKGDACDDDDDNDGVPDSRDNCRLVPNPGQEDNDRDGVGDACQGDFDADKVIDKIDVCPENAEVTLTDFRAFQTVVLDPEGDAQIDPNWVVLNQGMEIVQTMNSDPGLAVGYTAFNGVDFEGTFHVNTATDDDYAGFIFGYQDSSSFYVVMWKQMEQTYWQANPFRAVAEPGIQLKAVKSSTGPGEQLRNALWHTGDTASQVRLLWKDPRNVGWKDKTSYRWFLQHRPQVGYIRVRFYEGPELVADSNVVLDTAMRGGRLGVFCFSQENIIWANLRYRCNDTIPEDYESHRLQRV
MBP-fusion protein of the COMP C-terminus: residues 521-755 of Q9R0G6
UniProt P29754: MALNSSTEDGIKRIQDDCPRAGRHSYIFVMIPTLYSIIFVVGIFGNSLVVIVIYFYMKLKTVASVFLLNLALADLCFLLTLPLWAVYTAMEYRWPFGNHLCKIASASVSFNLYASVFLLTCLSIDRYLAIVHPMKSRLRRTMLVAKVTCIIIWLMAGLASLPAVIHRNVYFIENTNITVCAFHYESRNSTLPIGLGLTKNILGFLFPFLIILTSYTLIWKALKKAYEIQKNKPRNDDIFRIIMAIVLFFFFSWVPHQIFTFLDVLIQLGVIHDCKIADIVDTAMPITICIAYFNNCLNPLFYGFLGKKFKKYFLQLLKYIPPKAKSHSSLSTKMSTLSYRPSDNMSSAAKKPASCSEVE
N-terminus of mouse AT1a receptor (aa 1-27) in pBIND: residues 1-27 of P29754
transmembrane region 1-3 of mouse AT1a receptor (aa 28-142) in pBIND: residues 28-142 of P29754
transmembrane region 4-7 of mouse AT1a receptor (aa 143-299) in pBIND: residues 143-299 of P29754
C-terminus of mouse AT1a receptor (aa 300-359) in pBIND: residues 300-359 of P29754
UniProt P29755: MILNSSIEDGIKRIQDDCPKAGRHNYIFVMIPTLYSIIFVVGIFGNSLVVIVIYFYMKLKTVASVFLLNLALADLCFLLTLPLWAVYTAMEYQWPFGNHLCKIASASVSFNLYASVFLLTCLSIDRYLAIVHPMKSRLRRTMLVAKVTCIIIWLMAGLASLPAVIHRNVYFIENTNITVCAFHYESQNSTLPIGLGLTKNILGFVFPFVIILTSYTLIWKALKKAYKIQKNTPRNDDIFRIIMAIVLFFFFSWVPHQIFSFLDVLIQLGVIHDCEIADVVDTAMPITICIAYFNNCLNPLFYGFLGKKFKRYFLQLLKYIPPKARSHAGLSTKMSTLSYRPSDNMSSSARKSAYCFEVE
UniProt P30556, residues 1-318: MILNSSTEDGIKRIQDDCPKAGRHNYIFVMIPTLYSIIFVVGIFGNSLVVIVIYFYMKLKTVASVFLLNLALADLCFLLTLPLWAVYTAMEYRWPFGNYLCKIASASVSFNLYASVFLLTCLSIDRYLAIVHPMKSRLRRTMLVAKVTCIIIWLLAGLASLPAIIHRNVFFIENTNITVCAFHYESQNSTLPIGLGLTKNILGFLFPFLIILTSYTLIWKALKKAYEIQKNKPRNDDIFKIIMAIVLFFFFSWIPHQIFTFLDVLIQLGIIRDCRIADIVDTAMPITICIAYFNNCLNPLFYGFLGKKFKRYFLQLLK
UniProt P07996, residues 19-1170: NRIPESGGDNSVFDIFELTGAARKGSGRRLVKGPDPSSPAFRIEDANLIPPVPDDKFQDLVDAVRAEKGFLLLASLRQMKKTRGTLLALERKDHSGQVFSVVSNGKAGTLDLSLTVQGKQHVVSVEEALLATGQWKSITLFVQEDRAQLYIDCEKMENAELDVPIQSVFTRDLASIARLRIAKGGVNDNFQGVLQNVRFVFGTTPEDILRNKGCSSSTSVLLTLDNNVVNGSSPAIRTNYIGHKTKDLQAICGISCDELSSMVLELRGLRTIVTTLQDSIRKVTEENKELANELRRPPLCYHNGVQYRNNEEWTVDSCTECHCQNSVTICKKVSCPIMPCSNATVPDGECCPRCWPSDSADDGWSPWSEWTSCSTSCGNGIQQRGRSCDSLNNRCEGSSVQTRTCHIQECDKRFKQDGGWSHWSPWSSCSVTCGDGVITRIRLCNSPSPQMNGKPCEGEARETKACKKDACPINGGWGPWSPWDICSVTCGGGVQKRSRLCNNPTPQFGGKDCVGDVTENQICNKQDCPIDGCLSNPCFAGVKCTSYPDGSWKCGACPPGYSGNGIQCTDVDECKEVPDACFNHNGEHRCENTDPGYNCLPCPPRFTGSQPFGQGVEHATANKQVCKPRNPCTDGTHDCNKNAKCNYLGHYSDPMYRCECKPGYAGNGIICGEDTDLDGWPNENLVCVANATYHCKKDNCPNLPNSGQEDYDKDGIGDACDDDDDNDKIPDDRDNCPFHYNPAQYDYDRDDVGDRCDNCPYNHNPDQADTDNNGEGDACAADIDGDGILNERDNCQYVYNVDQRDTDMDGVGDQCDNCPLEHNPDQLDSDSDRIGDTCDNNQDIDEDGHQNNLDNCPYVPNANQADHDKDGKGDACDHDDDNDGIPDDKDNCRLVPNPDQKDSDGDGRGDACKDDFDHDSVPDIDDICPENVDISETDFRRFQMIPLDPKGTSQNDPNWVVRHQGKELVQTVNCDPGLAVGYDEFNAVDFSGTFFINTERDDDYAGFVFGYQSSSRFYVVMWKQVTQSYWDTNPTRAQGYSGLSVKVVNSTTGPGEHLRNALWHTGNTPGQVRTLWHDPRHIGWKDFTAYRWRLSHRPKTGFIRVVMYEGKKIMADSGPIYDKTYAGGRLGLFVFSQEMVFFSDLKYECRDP

These are yes or no findings as the source states them, for the method shown. For some assays here: In cells and extracts the contact can be indirect. Some entries that bind do so weakly or less than the wild type. For some assays here: Tags and fused reporters may be left off the sequences shown.

Test [1] concerns the target cartilage oligomeric matrix protein, endogenous in mouse aorta (mouse (endogenous in suprarenal aorta)) (UniProt Q9R0G6). In words: co-IP; suprarenal aorta lysates of C57BL/6 J mice; anti-AT1 or anti-COMP antibody or control IgG, Protein A/G agarose beads; western blot.
The target in test [2] is N-terminus of mouse AT1a receptor (aa 1-27) in pBIND (mouse) (UniProt P29754). The experiment in a line: two-hybrid; mammalian two-hybrid in COS-7 cells: AT1a domains in pBIND, COMP or its domains in pACT, reporter pG5luc; dual-luciferase assay after 48 h.
Test [3] has as its target C-terminus of mouse AT1a receptor (aa 300-359) in pBIND (mouse) (UniProt P29754). The test is described as above.
Test [4] concerns the target transmembrane region 1-3 of mouse AT1a receptor (aa 28-142) in pBIND (mouse) (UniProt P29754). The test is described as above.
The target of test [5] is transmembrane region 4-7 of mouse AT1a receptor (aa 143-299) in pBIND (mouse) (UniProt P29754). The test is described as above.
Test [6] has as its target MBP-fusion protein of the COMP C-terminus (mouse) (UniProt Q9R0G6). In words: pull-down; MBP fusion proteins of COMP domains and GST-fused AT1a N-terminus, equimolar, 4 °C 2 h; amylose resin; western blot with anti-GST; both purified. A general note: In western blotting, separated proteins are transferred to a membrane and probed.
Test [7] has as its target MBP-fusion protein of the COMP N-terminus (mouse) (UniProt Q9R0G6). The description is as above.
Test [8] deals with MBP-fusion protein of the COMP Type III repeat (mouse) (UniProt Q9R0G6). Described as above.
Test [9] deals with AT1b receptor, endogenous in AT1a-/- mouse aorta (mouse (endogenous in AT1a-/- aorta)) (UniProt P29755). In words: co-IP; AT1a-/- aortic samples; anti-AT1 or anti-COMP antibody, reciprocal; western blot.
Test [10] has as its target AT1 receptor (AT1a), endogenous in mouse aorta (mouse (endogenous in suprarenal aorta)) (UniProt P29754). In words: co-IP; suprarenal aorta lysates of C57BL/6 J mice; anti-AT1 or anti-COMP antibody or control IgG, Protein A/G agarose beads; western blot.
Test [11] has the same target. The experiment in a line: proximity ligation; frozen cross-sections of mouse suprarenal aortas; anti-COMP (rat) and anti-AT1 (rabbit) antibodies, Duolink In Situ Red Kit; IgGs as controls.
Test [12] deals with T1, AT2 receptor with a TC-tag inserted into extracellular loop 1 (UniProt P50052).
T1 sequence (chain, FlAsH label on the TC-tag): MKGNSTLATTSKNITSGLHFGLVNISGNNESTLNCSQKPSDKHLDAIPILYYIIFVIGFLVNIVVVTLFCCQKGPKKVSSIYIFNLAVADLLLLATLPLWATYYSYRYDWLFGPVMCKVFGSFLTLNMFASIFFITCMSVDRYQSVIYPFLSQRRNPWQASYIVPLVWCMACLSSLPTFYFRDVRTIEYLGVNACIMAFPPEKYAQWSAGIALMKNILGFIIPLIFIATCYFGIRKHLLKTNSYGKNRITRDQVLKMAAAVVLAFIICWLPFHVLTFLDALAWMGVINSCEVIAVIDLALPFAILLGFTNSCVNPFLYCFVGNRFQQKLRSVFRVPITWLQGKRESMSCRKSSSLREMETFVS
In words: FRET or BRET; intermolecular FlAsH-BRET, saturation: HEK293T cells co-transfected with a fixed amount of COMP-RLuc plasmid and increasing amounts of TC-tagged receptor plasmid; FlAsH labelling; coelenterazine-h. For orientation: Bioluminescence resonance energy transfer reports proximity on the nanometre scale.

Test [13] concerns the target human AT1 receptor with a TC-tag inserted at G97-N98 in extracellular loop 1 (human) (UniProt P30556). Described as above.
Test [14] has as its target Flag-tagged mouse AT1a receptor (mouse) (UniProt P29754). In words: co-IP; Flag-AT1a-overexpressing COS-7 cells incubated with purified COMP protein for 30 min; lysates precipitated with anti-Flag antibody or control IgG; COMP by western blot; only the binder purified.
The target in test [15] is AT1 receptor, residues 1-318, with N-terminal Flag-tag and BRIL (Flag-BRIL-AT1) (human (by the printed RefSeq NM_000685.4)) (UniProt P30556). In words: SPR; BiaCore 8 K; AT1 amine-coupled to a CM5 chip (~4500 RU); analyte in two-fold dilutions (COMP 0.43–110 nM), 120 s association, 200 s dissociation; 10 mM HEPES pH 7.4, 150 mM NaCl, 0.05% P20, 0.01% DDM, 0.002% CHS; 1:1 binding model; both purified.

For “AT1 receptor (AT1a), endogenous in mouse aorta (from UniProt P29754 1-359)”, the binding entry in test [1] is given as “binds”.

Consider “C-terminus of mouse COMP (aa 521-755) in pACT (from UniProt Q9R0G6 521-755) (domain or fragment)”, for which the binding result in test [2] is “no binding”. Regarding “COMP fused into the pACT vector (from UniProt Q9R0G6 1-755)”, the binding result in [3] was “no binding”; in test [2], “binds”; in [4], “no binding”; in test [5], “no binding”.

On to “EGF1 of mouse COMP (aa 85-124) in pACT (from UniProt Q9R0G6 85-124) (domain or fragment)”, for which the binding result in test [2] was “no binding”.

For “EGF1-2 of mouse COMP (aa 85-177) in pACT (from UniProt Q9R0G6 85-177) (domain or fragment)”, the binding entry in test [2] is “binds”.

With “EGF1-3 of mouse COMP (aa 85-220) in pACT (from UniProt Q9R0G6 85-220) (domain or fragment)”, the binding entry in test [2] is recorded as “binds”. The same measure, in the same setting: the entry for “EGF2 of mouse COMP (aa 125-177) in pACT (from UniProt Q9R0G6 125-177) (domain or fragment)” is “binds”. Same read-out and setting: the entry for “EGF repeat domain of mouse COMP (aa 84-261) in pACT (from UniProt Q9R0G6 84-261) (domain or fragment)” is “binds”. Regarding “GST-fused N-terminus of mouse AT1a receptor (aa 1-27) (from UniProt P29754 1-27) (domain or fragment)”, the binding result in test [6], in test [7] and in test [8] was “no binding” in each case.

In the case of “N-terminus of mouse COMP (aa 20-83) in pACT (from UniProt Q9R0G6 20-83) (domain or fragment)”, the binding result in test [2] is given as “no binding”. Consider “cartilage oligomeric matrix protein, endogenous in mouse aorta (from UniProt Q9R0G6 20-755)”, for which the binding entry in test [9] is on record as “no binding”; in test [10], “binds”; in [11], “binds”.

Consider “mouse COMP fused with the modified Renilla luciferase at the C-terminus (from UniProt Q9R0G6 20-755)”, for which the values for the binding result in test [12] and in test [13] were “no binding” and “binds”, respectively. For the substance “purified COMP protein (as in ref. 75) (from UniProt Q9R0G6 20-755)”, the binding entry in [14] is “binds”. For the substance “thrombospondin-1 (from UniProt P07996 19-1170)”, in test [15], the binding entry is “no binding”. Take “type III repeat domain of mouse COMP (aa 266-520) in pACT (from UniProt Q9R0G6 266-520) (domain or fragment)”: the binding result in test [2] is on record as “no binding”.
